Experimental findings from PubChem BioAssay AID485344 (National Center for Advancing Translational Sciences (NCATS), 2010) are described below.

Hit rate of the full screen: of about 340,000 compounds, about 6,900 (2%) were called active. No stated cut-off is given here; in the data, active means inhibition above about 30%; inactive means below that, where a call was filed. The entries are a selection whose mix differs from that of the whole data set. The source gives no active or inactive call for entries shown without one.

Sequence of UniProt P14416 (P14416 whole entry, looked up): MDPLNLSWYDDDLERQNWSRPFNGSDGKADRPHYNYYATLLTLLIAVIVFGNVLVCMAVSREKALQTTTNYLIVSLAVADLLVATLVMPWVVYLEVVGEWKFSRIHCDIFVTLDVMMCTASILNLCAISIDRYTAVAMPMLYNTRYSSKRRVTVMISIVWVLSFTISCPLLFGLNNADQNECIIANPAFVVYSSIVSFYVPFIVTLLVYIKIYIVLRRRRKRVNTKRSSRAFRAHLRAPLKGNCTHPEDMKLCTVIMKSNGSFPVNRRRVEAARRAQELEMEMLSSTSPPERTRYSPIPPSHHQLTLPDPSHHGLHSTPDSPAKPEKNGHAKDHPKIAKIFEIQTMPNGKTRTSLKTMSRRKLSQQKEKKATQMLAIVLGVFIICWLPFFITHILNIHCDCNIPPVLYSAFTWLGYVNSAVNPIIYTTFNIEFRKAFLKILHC

In the assay the target is D(2) dopamine receptor (Homo sapiens) (UniProt P14416). Put plainly: HTS Assay for Allosteric Antagonists of the Human D2 Dopamine Receptor: Primary Screen for Antagonists. Further: 0% is about no effect. The conditions noted are these: HEK293 TREx D2 cells, calcium flux, dopamine EC80; at 10 µM; stronger effect = higher value. Summed up:
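Tetracycline-induced HEK293 T-REx cells expressing D2 force-coupled to calcium signalling were dye-loaded, exposed to compound for 180 s, then challenged with an EC80 of dopamine; calcium flux was followed kinetically for a further 180 s.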
(Calcium assays in cells follow changes in intracellular calcium, usually with a dye or a luminescent sensor.)
As a reminder, the inhibition is the drop in the measured response relative to a control, in per cent. As to `COC(=O)C1=C(C(=O)OC)SC(=C2C(=S)C(C)(C)N(C(=O)CC(C)C)c3ccccc32)S1`, the inhibition is active: 30.3%.

On to `COc1ccc(-c2nc3scc(CCNS(=O)(=O)c4ccc(F)c(C(F)(F)F)c4)n3n2)cc1OC`, for which the inhibition worked out at 12.5%.

As for `CCCC(=O)C1=C(c2ccc(C)cc2)N(C(=O)CCC)n2cnnc2S1`, the inhibition was -14.7%.

On to `O=c1c2ccccc2[nH]c(=S)n1CCCN1CCN(C2CCCCC2)CC1`, for which the inhibition is active: 82.3%.

As for `CCN1CCN(c2cc(C)c3cc(NC(=O)c4cccc(Cl)c4)ccc3n2)CC1`, the inhibition is -3.71%.

As for `Cc1oc(-c2ccc(C(=O)Nc3cccc(C(F)(F)F)c3)cc2)nc1CSc1ccccc1`, the inhibition was determined as 2.26%.

For the molecule `COc1ccc(Nc2nc3ccc(Cl)cc3n3nnnc23)cc1OC`, the inhibition stood at 11.8%.

With `O=C(CCCCn1c(=O)c2ccccc2n(CC(=O)Nc2ccccc2)c1=O)NCc1ccccc1Cl`, the inhibition is -12.5%.

In the case of `Cc1cccc(N2CCN(S(=O)(=O)c3ccc4oc(=O)c5ncn(C)c5c4c3)CC2)c1C`, the inhibition was -8.69%.

As to `CCc1nnc2c3ccccc3nc(Nc3ccccc3OC)n12`, the inhibition is -22.9%.

Take `Cc1c(C)n(Cc2ccccc2)c2ccc(C(=O)NCc3ccc(OC(C)C)cc3)cc12`: the inhibition is 3.8%.

As to `CCOC(=O)c1sc(NC(=O)C(C)Sc2nc(-c3ccccc3)cc(C(F)(F)F)n2)c(C(=O)OC)c1C` (stereo unspecified), the inhibition stood at 2.86%.

As for `CCOC(=O)C1(Cc2ccccc2C(F)(F)F)CCN(CCCn2cccn2)CC1`, the inhibition was active: 47.9%.

Turning to `CCOc1ccc(C(=O)Nc2ccc(-c3nc4cc(C)ccc4o3)cc2)cc1`, the inhibition came out at 2.89%.

As for `COCCn1nnnc1C(c1cc2cccc(C)c2[nH]c1=O)N1CCN(c2ccccc2F)CC1` (stereo unspecified), the inhibition is active: 34.3%.

Take `CCCCCn1c(CCCNC(=O)c2cccc(C)c2)nc2ccccc21`: the inhibition is -1.02%.

Regarding `COCc1ccc(CN2CCC(C(=O)Nc3cccc(-c4cccc(Cl)c4)c3)CC2)o1`, the inhibition was active: 33.5%.

For `N=c1oc2c3c4c(cc2cc1C(=O)Nc1ccccc1)CCCN4CCC3`, the inhibition is active: 70.8%.

Regarding `CCOC(=O)c1cc(-c2ccccc2)n(CCC(=O)Nc2cc(OCC)ccc2OCC)c1C`, the inhibition was found to be 1.29%.

Regarding `COc1ccc(NC(=O)c2ccc(NC(=O)CCS(=O)(=O)c3cccs3)cc2)cc1OC`, the inhibition was determined as 8.24%.

`CCOc1ccccc1CNC(=O)c1ccc2c(c1)sc1nc(-c3ccccc3)cn12`: the inhibition was 14.6%.

Take `Cc1ccc(Cl)cc1N1CCN(CCCNc2ncnc3onc(-c4ccc(Cl)cc4)c23)CC1`: the inhibition was -2.79%.

As to `Cc1ccc(OCCNCC(O)COc2ccccc2)cc1` (stereo unspecified), the inhibition is active: 45.2%.

For `Cc1noc2ncnc(N3CCCC(C(=O)NC(C)C)C3)c12` (stereo unspecified), the inhibition turned out to be 3.7%.

In the case of `Cc1cccc(CCNC(=O)C2CCN(c3ncnc4c3nc3n4CCCCC3)CC2)c1`, the inhibition was 19.2%.

For the molecule `Cc1cccc(NC(=O)CN2C(=O)c3ccccc3Sc3ncccc32)c1C`, the inhibition amounted to 15.1%.

Consider `COc1ccccc1C(=O)OCc1cc(=O)n2nc(C3CCCCC3)sc2n1`, for which the inhibition is -7.83%.

Regarding `Cc1ccccc1C(C(=O)NC1CCCC1)N(C(=O)CNC(=O)c1ccco1)c1cccnc1` (stereo unspecified), the inhibition was active: 50.8%.

Turning to `CCn1c(NCc2ccc(OC)c(OC)c2)nc2ccccc21`, the inhibition was -17.1%.

Consider `Cc1ccc(S(=O)(=O)c2nnn3c2nc(N2CCC(C)CC2)c2cc(Cl)ccc23)cc1C`, for which the inhibition was 5.57%.

For the molecule `CCN1C(=O)c2ccccc2S(=O)c2ccc(C(=O)N3CCN(c4ccccc4)CC3)cc21` (stereo unspecified), the inhibition was -28.3%.

`CCOC(=O)CN(C(=O)CSc1nnc2c(n1)[nH]c1ccc(F)cc12)c1ccccc1`: the inhibition is active: 72.5%.

`COc1cccc(CNC(=O)CCCN2C(=O)CSc3c2c(C)nn3-c2ccccc2)c1OC`: the inhibition was -16.9%.

On to `CCOC(=O)c1c(NC(=O)/C=C/c2ccc(OCC)c(OC)c2)sc2c1CCC2`, for which the inhibition was -10.7%.

As for `CCc1ccccc1NC(=O)CN(c1ccc(OC)cc1)S(=O)(=O)c1c(C)n[nH]c1C`, the inhibition is -5.37%.

As to `Cc1ccc(NC(=O)c2cc(S(=O)(=O)NCCC3=CCCCC3)ccc2F)cc1C`, the inhibition came out at 4.33%.

For `Cc1cccc(-c2nc3scc(CCNS(=O)(=O)c4ccc(F)cc4C)n3n2)c1`, the inhibition is 9.59%.

Turning to `CCc1ccc(NC(=O)c2sc3nc(C)c(C(=O)Nc4ccc(C)cc4C)c(-c4ccco4)c3c2N)cc1`, the inhibition was -1.52%.

With `COc1ccc(Nc2sc(C(=O)c3ccccc3)c(N)c2C(=O)Nc2cc(C)ccc2C)c(OC)c1`, the inhibition was -1.96%.

As to `Cc1oc(-c2ccccc2)nc1CNC(=O)NC1CCCCC1`, the inhibition is 6.72%.

In the case of `Cc1c(NC(=O)c2cc(-c3ccc(Br)cc3)on2)c(=O)n(-c2ccccc2)n1C`, the inhibition came out at 2.55%.

Regarding `Cc1ccccc1Nc1c(-c2c[nH]c3ccccc23)nc2ccccn12`, the inhibition worked out at 12%.

As to `CC(C)(C)OC(=O)N1CCC(c2nnc(SCc3ccccc3F)o2)CC1`, the inhibition is -14.6%.

For the molecule `O=c1c2oc3ccccc3c2n(Cc2ccccc2)c(=O)n1Cc1ccco1`, the inhibition is -8.87%.

For the molecule `COc1ccc(OC)c(CNC(=O)c2cc3ccc4cccnc4c3[nH]2)c1`, the inhibition was -8.08%.

In the case of `CCCSc1ccc([C@@H]2[C@@H]3C(=O)N(C)C(=O)[C@@H]3[C@]3(C(=O)OC)CCCCN23)cc1OC`, the inhibition is active: 35.5%.

Regarding `CC1CCCN(CCCNC(=O)c2cc3c(Cl)nc4ccccc4c3s2)C1` (stereo unspecified), the inhibition is -0.754%.

On to `COc1ccc(C(=O)CCC(=O)Nc2ccc(C)c(Cl)c2)cc1`, for which the inhibition worked out at 3.98%.

For the molecule `COc1cc(Cl)c(C)cc1Nc1nc2ccccc2n2cnnc12`, the inhibition was 25.5%.

In the case of `COc1ccccc1CNC(=O)C1CCN(S(=O)(=O)c2cn(C)cn2)CC1`, the inhibition was -1.04%.

For the molecule `O=C(NCCc1csc(-c2ccc(F)cc2)n1)c1cccc(F)c1`, the inhibition is 5.08%.

For the molecule `Cc1ccc(C2c3[nH]c4ccccc4c3CCN2C(=O)CSCc2ccc(F)cc2)cc1` (stereo unspecified), the inhibition turned out to be 5.82%.

With `CCc1ccccc1N(C)C(=O)c1sc2nc3n(c(=O)c2c1C)CCCCC3`, the inhibition is -7.93%.

Regarding `Cc1nn(C)c(C)c1CCNC(=O)Nc1ccccc1C(F)(F)F`, the inhibition was determined as 14.9%.

Take `COc1ccc(N2CC(NC(=O)/C=C\c3ccccc3)CC2=O)cc1OC` (stereo unspecified): the inhibition is -5.67%.

Consider `COc1ccc(CNC(=O)Cn2c(-c3ccccc3)cc(C(C)=O)c2C)cc1OC`, for which the inhibition was 3.52%.

Regarding `CCN(CC)c1nn2c(=O)c(C(=O)NCc3ccc(N(C)C)cc3)cnc2s1`, the inhibition was -1.21%.

For the molecule `CCC(=O)N1CCc2cc(S(=O)(=O)NC(C(=O)NCCc3cccc(C)c3)C(C)C)ccc21` (stereo unspecified), the inhibition was 8.31%.

With `CN(Cc1ccco1)S(=O)(=O)c1nnc(NC(=O)c2ccccc2Cl)s1`, the inhibition was -21.4%.

As to `Cc1ccc(S(=O)(=O)CCN2CCN(c3ccccc3)CC2)cc1`, the inhibition is active: 30.2%.

Turning to `O=C(NCc1cccs1)c1ccc(CSc2nc3ccncc3n2Cc2ccccc2F)cc1`, the inhibition was -5.13%.
